Measured values taken from patent US20130225496A1 (NOVOZYMES BIOPHARMA DK A S, published 2013).
Blank lines part the entries; values can stand above or below the binder they belong to.

Biological target: T1, GST-tagged soluble human neonatal Fc receptor (shFcRn-GST) (human, UniProt P55899 partial chain; P61769 partial chain)
T1 construct: Immobilised by amine coupling on CM5 chips (about 1500-2500 RU); Made by the methods of WO 2011/051489; also called human FcRn; not shown: GST tag
Test: SPR (Biacore 3000), albumin over immobilised shFcRn-GST (~1500 RU), pH 6.0, 1:1 model
Protocol: SPR experiments were carried out using a Biacore 3000 instrument (GE Healthcare). […] Phosphate buffer (67 mM phosphate buffer, 0.15 M NaCl, 0.005% Tween 20) at pH 6.0) was used as running buffer and dilution buffer.

Kd: 600 nM
koff: 0.0021 s⁻¹
kon: 3300 M⁻¹ s⁻¹
B1: N-terminus of HSA, C-terminus of sheep albumin (HSA-SheepC) (other)
chain: DAHKSEVAHRFKDLGEENFKALVLIAFAQYLQQCPFEDHVKLVNEVTEFAKTCVADESAENCDKSLHTLFGDKLCTVATLRETYGEMADCCAKQEPERNECFLQHKDDNPNLPRLVRPEVDVMCTAFHDNEETFLKKYLYEIARRHPYFYAPELLFFAKRYKAAFTECCQAADKAACLLPKLDELR[letters of about 200 residues omitted]NLIKQNCELFEQLGEYKFQNALLVRYTKKVPQVSTPTLVEVSRNLGKVGSKCCKHPEAKRMPCAEDYLSVVLNQLCVLHEKTPVSDRVTKCCTESLVNRRPCFSALEVDETYVPKEFNAETFTFHADICTLSEKERQIKKQTALVELVKHKPKATKEQLKAVMDDFAAFVEKCCKADDKETCFAEEGPKLVASTQAALA
notes: Plasmid pDB4117; also called HSA K573P/A578S/S579T/G584A

Kd: 400 nM
koff: 0.0016 s⁻¹
kon: 3500 M⁻¹ s⁻¹
B2: N-terminus of HSA, C-terminus of rabbit albumin (HSA-RabC) (other)
chain: DAHKSEVAHRFKDLGEENFKALVLIAFAQYLQQCPFEDHVKLVNEVTEFAKTCVADESAENCDKSLHTLFGDKLCTVATLRETYGEMADCCAKQEPERNECFLQHKDDNPNLPRLVRPEVDVMCTAFHDNEETFLKKYLYEIARRHPYFYAPELLFFAKRYKAAFTECCQAADKAACLLPKLDELR[letters of about 200 residues omitted]NLIKQNCELFEQLGEYKFQNALLVRYTKKVPQVSTPTLVEVSRNLGKVGSKCCKHPEAKRMPCAEDYLSVVLNQLCVLHEKTPVSDRVTKCCTESLVNRRPCFSALEVDETYVPKEFNAETFTFHADICTLSEKERQIKKQTALVELVKHKPKATKEQLKAVMDDFAAFVEKCCKADDKETCFAEEGPKLVESSKATLG
notes: Plasmid pDB4116; also called HSA K573P/A577E/A578S/Q580K/A582T
